Values joined by “and” are separate entries in the source; they are usually repeats but may differ in a detail not shown here. Equal entries are not always repeated. Out of some 200,000 compounds screened, about 860 (0.43%) were called active. The call rests on the fitted dose curve; in most records, active means well fitted inhibition curve with a large enough effect; inconclusive means small, poorly fitted or top-dose-only effect; inactive means flat fitted curve, though single readings scatter. The entries are a selection whose mix differs from that of the whole data set.
Potency means the concentration at half of the fitted maximal effect.

Sequence of UniProt P25779 (P25779 whole entry, looked up): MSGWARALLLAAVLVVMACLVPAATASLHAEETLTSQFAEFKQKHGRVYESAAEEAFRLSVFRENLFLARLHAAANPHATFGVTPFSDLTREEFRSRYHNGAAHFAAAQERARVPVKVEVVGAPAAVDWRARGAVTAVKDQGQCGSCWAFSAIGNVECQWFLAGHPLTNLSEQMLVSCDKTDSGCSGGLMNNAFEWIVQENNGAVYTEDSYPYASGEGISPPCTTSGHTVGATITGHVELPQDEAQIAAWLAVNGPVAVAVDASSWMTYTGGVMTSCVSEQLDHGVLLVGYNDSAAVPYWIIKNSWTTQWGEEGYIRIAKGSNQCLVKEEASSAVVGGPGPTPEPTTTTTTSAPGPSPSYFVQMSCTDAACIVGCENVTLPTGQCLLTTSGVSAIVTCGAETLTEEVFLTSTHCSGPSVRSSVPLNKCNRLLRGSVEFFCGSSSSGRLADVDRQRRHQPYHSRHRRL

The assay deals with Cruzipain (Trypanosoma cruzi) (UniProt P25779). The assay is described as follows: qHTS Assay for Promiscuous and Specific Inhibitors of Cruzain (with detergent). Further: nearly all actives have a fitted effect of over 40% in size. The following applies: purified cruzain, Z-FR-AMC fluorescence, 0.01% Triton. On the procedure:
Cruzain (3.4.22.51) is a cysteine protease from the tropical parasite Trypanosoma cruzi. Dual qHTS experiment was performed against the NCGC compound collection in order to 1) identify novel inhibitors of the enzyme and 2) profile the compound collection for promiscuous inhibitors operating via colloidal aggregation (by performing detergent-free and detergent-containing comparison screens). Cruzain was assayed by the use of fluorogenic coumarin-based substrate Z-FR-AMC: proteolytic cleavage releases AMC, whose fluorescence is measured at 360 nm excitation and 450 nm emission. Purified cruzain was supplied by the labs of Prof. James McKerrow and Brian Shoichet, UC San Francisco.
This assay had 0.01% Triton X-100 concentration. See also releated assay "qHTS Assay for Promiscuous and Specific Inhibitors of Cruzain (without detergent)" with 0.00005% Triton X-100.
See following references for additional details:
Assay Provider: Shoichet, Brian; University of California, San Fancisco
Screening Center PI: Austin, C.P.
Screening Center: NIH Chemical Genomics Center [NCGC]
Buffer: 100 mM Sodium Acetate, pH 5.5, 5 mM DTT, Triton X-100 concentration: 0.01%.
Buffer in columns 3 and 4 as negative control (no enzyme).
Substrate solution: 2 uM final concentration of Z-FR-AMC (catalog number I-1160, Bachem) dispensed throughout the plate.
Enzyme: 1.5 nM Cruzain final concentration in columns 1, 2, 5-48. Column 1 is neutral (100% activity). Column 2 contained titration of covalent inhibitor K11777, starting concentration 1 mM, then 1:2 dilution in duplicate).
Three uL of enzyme or buffer were dispensed to 1536-well Greiner black solid bottom plates. Compounds and controls (23 nL) were transferred via Kalypsys PinTool. The plates were incubated for 15 min at room temperature, and then 1 uL of substrate solution was added to start the reaction. The plates were immediately transferred to and read 4 times every 30 seconds for 2 min on ViewLux High-throughput CCD imager (Perkin-Elmer) using 360 nm excitation and 450 nm emission fluorescence protocol. The fluorescence intensity difference between the third and the first time points (time lapse of 60 seconds) was used to compute reaction progress.
Background: Quantitative high-throughput screening tests each substance at several concentrations.
Regarding `CCc1cc2c(=O)[nH]c(-c3ccncc3)nc2s1`, the Potency is active: 8.91 µM. As for `CCOC(=O)c1sc(NC(=O)COC(=O)CNC(=O)C2CCCCC2)c(C(=O)OCC)c1C`, the Potency was active: 2.24 µM. On to `O=c1cc(N2CCOCC2)oc2c(-c3ccccc3)cccc12`, for which the max response, negative = inhibition was inactive: -7.16%. With `CCOC(=O)c1sc(-c2ccc(OC)cc2)cc1NC(C)=O`, the max response, negative = inhibition was inactive: 41.6%. Turning to `COc1cc(OC)c2c(C)cc(=O)oc2c1`, the max response, negative = inhibition is inactive: 68.4%. Same read-out and setting: for `Cc1cc(=O)oc2cc(OC(=O)c3nn(C(C)C)c(=O)c4ccccc34)ccc12` the value was inactive: 36%; for `Cc1cccc(-n2c(=O)c(C#N)cc3c(=O)n4ccccc4nc32)c1`, inactive: 41.2%. Still for that read-out and setting: for `COc1cc([C@H]2Oc3cc([C@H]4Oc5cc(O)cc(O)c5C(=O)[C@@H]4O)ccc3O[C@@H]2CO)ccc1O` the value was inactive: -16.6%; for `O=C1c2ccccc2C(=O)c2c(O)c(O)cc(O)c21`, inactive: -24.2%.

As for `O=C(O)C1=CC(=C(c2ccc(O)c(C(=O)O)c2)c2ccc(O)c(C(=O)O)c2)C=CC1=O`, the max response, negative = inhibition was inactive: -23.9%. Turning to `O=C(Nc1cccc(O)c1)c1noc2c1CCc1ccccc1-2`, the max response, negative = inhibition was inactive: -27.9%. For `CCOC(=O)c1sc2c(c1C)C(c1cccs1)C1=C(CCCC1=O)N2` (stereo unspecified), the max response, negative = inhibition is inactive: 32.6%. As to `Cc1ccc(S(=O)(=O)N[C@H](C(=O)Oc2ccc3c(C(F)(F)F)cc(=O)oc3c2)c2ccccc2)cc1`, the max response, negative = inhibition is inactive: -22.6%. In the case of `CC[C@@H]1Cc2cc(O)ccc2C2=C1c1ccc(O)cc1C[C@H]2CC`, the max response, negative = inhibition is inactive: 48.2% and inactive: 6.79%. As for `Cc1ccc2sc(-c3ccc(N)cc3)nc2c1`, the max response, negative = inhibition was inactive: 35.7%. For `O=C(COc1ccc2ccccc2c1)Nc1cccc(C(=O)Nc2ccccc2C(=O)O)c1`, the Potency is active: 31.6 µM. For `Cn1c(N)c(C(=O)COC(=O)c2cc(-c3ccco3)nc3ccccc23)c(=O)n(C)c1=O`, the max response, negative = inhibition was inactive: -11.7%. `O=C(c1ccc(COc2ccc(F)cc2)o1)n1cccn1`: the Potency was active: 15.8 µM. On to `CCn1c(=N)c(C(=O)NC2CCCCC2)cc2c(=O)n3cccc(C)c3nc21`, for which the max response, negative = inhibition is inactive: 91.7%. Turning to `Cc1cc(-c2ccc(N=Nc3cc(S(=O)(=O)O)c4ccccc4c3N)c(C)c2)ccc1N=Nc1cc(S(=O)(=O)O)c2ccccc2c1N`, the Potency is active: 7.94 µM.

In the case of `O=C1NN(c2ccc(Cl)c(Cl)c2)C(=O)/C1=C/c1cccc(OC(=O)c2cccs2)c1`, the Potency was active: 20 µM. In the case of `CC[C@@H](CO)NC(=O)[C@@H]1C=C2c3cccc4c3c(cn4C)C[C@H]2N(C)C1`, the max response, negative = inhibition is inactive: -25.5%.

For the compound `CCN(CC)C(=O)N[C@H]1C[C@@H]2c3cccc4[nH]cc(c34)C[C@H]2N(C)C1`, the max response, negative = inhibition was inactive: 0.583%. In the case of `CC(C)C(=O)Nc1nnc(SCC(=O)N2c3ccccc3CC2C)s1` (stereo unspecified), the Potency is active: 10 µM. As to `CCn1c(C(=O)Nc2cc(Cl)ccc2C)cc2sc(Cl)cc21`, the max response, negative = inhibition is inactive: 39.3%. Consider `O=C(Cn1c2ccccc2c(=O)c2ccccc21)Nc1cccc(F)c1`, for which the Potency was active: 0.794 µM.

Source of the values: PubChem BioAssay AID1478 (National Center for Advancing Translational Sciences (NCATS), 2009).
